Experimental data: PubChem BioAssay AID463173 (ICCB-Longwood Screening Facility, Harvard Medical School, 2010)
Hit rate of the full screen: of about 52,000 compounds, about 4,300 (8.3%) were called active. No stated cut-off is given here; in the data, active means survival mostly below about 52% (no sharp cut-off); inactive means mostly above about 56%. The list shows a part of the results.

The compounds below were run on DeltatarO mutant (assay: S. aureus survival, RN4220 and DeltatarO strains – OD600, teichoic acid synthesis inhibitors, primary screen (AID 463173)). Conditions: S. aureus RN4220 wild type/DeltatarO growth, OD600, 18 h, hits give low values, screened at 18.75 µg/mL (by protocol).
In the case of `Cc1ccc(C2CC(=O)N(Cc3ccccc3F)c3c2c(C)nn3-c2nc(C)cc(C)n2)cc1` (stereo not given), the survival is reported as inactive: 71%. For `CCn1cc(C(=O)N2CCN(c3cccc(Cl)c3)CC2)c(=O)c2cc(S(=O)(=O)N3CCOCC3)ccc21`, the survival was inactive: 81%. For `Cc1ccc(Cc2nc3ccccc3nc2SCC(=O)N2CCc3ccccc32)cc1`, the survival was inactive: 93%. For `CCOc1ccc(CCNC(=O)CCc2c(C)nc3c(c(C)nn3-c3ccccc3)c2C)cc1OCC`, the survival was inactive: 50%. With `COc1cc(OC)c(NC(=O)c2c(C)oc3ncn(C)c(=O)c23)cc1Cl` the survival was inactive: 103%. In the case of `CCOc1ccc(NC(=O)c2ccc(NC(=O)CCS(=O)(=O)c3cccs3)cc2)cc1`, the survival is reported as inactive: 68%. With `COc1ccc(NC(=O)c2nnn(Cc3ccccc3C)c2N)c(OC)c1` the survival was inactive: 71%. For `O=C(CSc1nc2ccccc2o1)NC1CC1`, the survival was inactive: 95%. For `Cc1nn(-c2ccc(F)cc2)c(-n2cccc2)c1C(=O)N1CCN(c2ccc(F)cc2)CC1`, the survival was inactive: 80%. `Cc1ccc(C(=O)Nc2c(-c3ccccc3)nc3ccccn23)cc1C` was tested, and the survival was active: 34%. In the case of `O=C(CSc1ccc(-c2ccccn2)nn1)Nc1ccc(F)c(F)c1`, the survival is reported as active: 27%. In the case of `CN(C)CCNC(=O)C1CCN(c2nc3ccccc3[nH]2)CC1`, the survival is reported as inactive: 60%. In the case of `COc1ccc(NC(=O)Nc2nnc(N3CCCCCC3)s2)cc1`, the survival is reported as inactive: 72%. In the case of `Cc1c(NC(=O)c2cc([N+](=O)[O-])ccc2N2CCOCC2)cccc1-c1nc2ccccc2o1`, the survival is reported as inactive: 50%. For `Cc1ccc(NC(=O)c2nc(S(C)(=O)=O)ncc2N(Cc2ccccc2)Cc2ccco2)c(C)c1`, the survival was inactive: 53%. In the case of `CSc1nc2sc3c(c2c(=O)n1-c1ccc(C)c(Cl)c1)CCN(C(C)=O)C3`, the survival is reported as inactive: 63%. With `CCC(C)NC(=O)CSc1nc2ccc(C(C)C)cc2cc1C#N` (stereo not given) the survival was inactive: 91%. In the case of `COC(=O)c1ccc(NC(=O)CCc2c(C)nn(-c3ccc(N4CCCC4)nn3)c2C)cc1`, the survival is reported as inactive: 99%. For `CCOC(=O)c1cnn(-c2ccc(OC)cc2)c1C1CCN(C(=O)OC(C)(C)C)CC1`, the survival was inactive: 39%. With `Cc1cccc(-c2nc(SCc3ccc(Br)cc3)n3[nH]c(=O)cc3n2)c1` the survival was inactive: 92%. In the case of `COc1ccccc1N1CCN(C(=O)CCc2c(C)nn(-c3ccc(N4CCCC4)nn3)c2C)CC1`, the survival is reported as inactive: 67%. With `O=C(CN1CCN(Cc2ccccc2)CC1)N1CCCCCC1` the survival was inactive: 95%. `CC1CCCCN1c1csc2ccc(F)cc2c1=O` (stereo not given) was tested, and the survival was inactive: 89%. In the case of `Cn1nc(C(=O)Nc2cc(F)ccc2F)c2c1-c1ccccc1SC2`, the survival is reported as inactive: 90%. With `COc1ccc(-c2cc(C(F)F)n3ncc(C(=O)Nc4cc(C)on4)c3n2)cc1` the survival was inactive: 85%.
